Laboratory results taken from the supplement of paper PMC8728848.
Some of the results follow.

Experiments:
Test in all cases: glycan array binding signal (z-score within array); higher = stronger binding
Conditions in all cases: glycan notation: IUPAC condensed, linker removed
[1] = target: Gal(a1-3)Gal(b1-4)GlcNAc
Summary of the method: (§1)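 Glycan array data were curated from 3228 arrays in the Consortium for Functional Glycomics database and kept only where the protein sequence was available. Glycan names were converted to IUPAC-condensed notation, and columns mapping to the same glycan were averaged. The binding signal is a within-array Z-score, averaged across arrays of the same protein sequence at different concentrations or buffers and across linkers. Negative Z-scores can be read as non-binding.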

[2] = target: Gal(a1-3)Gal(b1-4)GlcNAc(b1-2)Man
Summary of the method: as §1

[3] = target: Gal(a1-3)Gal(b1-4)GlcNAc(b1-2)Man(a1-3)[Gal(a1-3)Gal(b1-4)GlcNAc(b1-2)Man(a1-6)]Man(b1-4)GlcNAc(b1-4)GlcNAc
Summary of the method: as §1

[4] = target: Gal(a1-3)Gal(b1-4)GlcNAc(b1-3)GalNAc
Summary of the method: as §1

[5] = target: Gal(a1-3)Gal(b1-4)GlcNAc(b1-6)GalNAc
Summary of the method: as §1

[6] = target: Gal(a1-3)Gal(b1-4)[Fuc(a1-3)]GlcNAc
Summary of the method: as §1

[7] = target: Gal(a1-3)Gal(b1-4)[Fuc(a1-3)]GlcNAc(b1-2)Man(a1-3)[Gal(a1-3)Gal(b1-4)[Fuc(a1-3)]GlcNAc(b1-2)Man(a1-6)]Man(b1-4)GlcNAc(b1-4)GlcNAc
Summary of the method: as §1

[8] = target: Gal(a1-3)GalNAc
Summary of the method: as §1

[9] = target: Gal(a1-3)[Gal(a1-4)]Gal(b1-4)GlcNAc
Summary of the method: as §1

[10] = target: Gal(a1-4)Gal(b1-3)GlcNAc(b1-2)Man(a1-3)[Gal(a1-4)Gal(b1-3)GlcNAc(b1-2)Man(a1-6)]Man(b1-4)GlcNAc(b1-4)GlcNAc
Summary of the method: as §1

[11] = target: Gal(a1-4)Gal(b1-4)Glc
Summary of the method: as §1

[12] = target: Gal(a1-4)Gal(b1-4)GlcNAc
Summary of the method: as §1

[13] = target: Gal(a1-4)Gal(b1-4)GlcNAc(b1-2)Man(a1-3)[Gal(a1-4)Gal(b1-4)GlcNAc(b1-2)Man(a1-6)]Man(b1-4)GlcNAc(b1-4)GlcNAc
Summary of the method: as §1

[14] = target: Gal(a1-4)Gal(b1-4)GlcNAc(b1-3)Gal(b1-4)Glc
Summary of the method: as §1

[15] = target: Gal(a1-4)GlcNAc
Summary of the method: as §1

[16] = target: Gal(a1-6)Glc
Summary of the method: as §1

[17] = target: Gal(b1-2)Gal
Summary of the method: as §1

[18] = target: Gal(b1-3)Gal
Summary of the method: as §1

[19] = target: Gal(b1-3)Gal(b1-4)GlcNAc
Summary of the method: as §1

[20] = target: Gal(b1-3)GalNAc
Summary of the method: as §1

[21] = target: Gal(b1-3)GalNAc(a1-3)[Fuc(a1-2)]Gal(b1-4)Glc
Summary of the method: as §1

[22] = target: Gal(b1-3)GalNAc(a1-3)[Fuc(a1-2)]Gal(b1-4)GlcNAc
Summary of the method: as §1

[23] = target: Gal(b1-3)GalNAc(b1-3)Gal
Summary of the method: as §1

[24] = target: Gal(b1-3)GalNAc(b1-3)Gal(a1-4)Gal(b1-4)Glc
Summary of the method: as §1

[25] = target: Gal(b1-3)GalNAc(b1-4)Gal(b1-4)Glc
Summary of the method: as §1

[26] = target: Gal(b1-3)GalNAc(b1-4)[Neu5Ac(a2-3)]Gal(b1-4)Glc
Summary of the method: as §1

[27] = target: Gal(b1-3)GlcNAc
Summary of the method: as §1

[28] = target: Gal(b1-3)GlcNAc(a1-3)Gal(b1-4)GlcNAc
Summary of the method: as §1

[29] = target: Gal(b1-3)GlcNAc(a1-6)Gal(b1-4)GlcNAc
Summary of the method: as §1

[30] = target: Gal(b1-3)GlcNAc(b1-2)Man
Summary of the method: as §1

[31] = target: Gal(b1-3)GlcNAc(b1-2)Man(a1-3)[Gal(b1-3)GlcNAc(b1-2)Man(a1-6)]Man(b1-4)GlcNAc(b1-4)GlcNAc
Summary of the method: as §1

[32] = target: Gal(b1-3)GlcNAc(b1-2)Man(a1-3)[Gal(b1-3)GlcNAc(b1-2)Man(a1-6)]Man(b1-4)GlcNAc(b1-4)[Fuc(a1-6)]GlcNAc
Summary of the method: as §1

[33] = target: Gal(b1-3)GlcNAc(b1-2)Man(a1-3)[GlcNAc(b1-4)][Gal(b1-3)GlcNAc(b1-2)Man(a1-6)]Man(b1-4)GlcNAc(b1-4)GlcNAc
Summary of the method: as §1

[34] = target: Gal(b1-3)GlcNAc(b1-2)[Gal(b1-3)GlcNAc(b1-6)]Man(a1-6)[Gal(b1-3)GlcNAc(b1-2)Man(a1-3)]Man(b1-4)GlcNAc(b1-4)GlcNAc
Summary of the method: as §1

[35] = target: Gal(b1-3)GlcNAc(b1-3)Gal(b1-3)GlcNAc
Summary of the method: as §1

[36] = target: Gal(b1-3)GlcNAc(b1-3)Gal(b1-4)Glc
Summary of the method: as §1

[37] = target: Gal(b1-3)GlcNAc(b1-3)Gal(b1-4)GlcNAc
Summary of the method: as §1

B1: DC-ASGPR-short (Homo sapiens) (protein)
chain: MTRTYENFQYLENKVKVQGFKNGPLPLQSLLQRLRSGPCHLLLSLGLGLLLLVIICVVGFQNSKFQRDLVTLRTDFSNFTSNTVAEIQALTSQGSSLEETIASLKAEVEGFKQERQAVHSEMLLRVQQLVQDLKKLTCQVATLNNNASTEGTCCPVNWVEHQDSCYWFSHSGMSWAEAEKYCQLKNAHLVVINSREEQNFVQKYLGSAYTWMGLSDPEGAWKWVDGTDYATGFQNWKPGQPDDWQGHGLGGGEDCAHFHPDGRWNDDVCQRPYHWVCEAGLGQTSQESH
glycan array binding signal (z-score) [1]: -0.274 | glycan array binding signal (z-score) [2]: -0.341 | glycan array binding signal (z-score) [3]: -0.281 | glycan array binding signal (z-score) [4]: -0.259 | glycan array binding signal (z-score) [5]: 1.44 | glycan array binding signal (z-score) [6]: -0.27 | glycan array binding signal (z-score) [7]: -0.258 | glycan array binding signal (z-score) [8]: -0.136 | glycan array binding signal (z-score) [9]: -0.269 | glycan array binding signal (z-score) [10]: -0.254 | glycan array binding signal (z-score) [11]: -0.18 | glycan array binding signal (z-score) [12]: -0.254 | glycan array binding signal (z-score) [13]: -0.275 | glycan array binding signal (z-score) [14]: -0.283 | glycan array binding signal (z-score) [15]: -0.155 | glycan array binding signal (z-score) [16]: -0.009 | glycan array binding signal (z-score) [17]: -0.296 | glycan array binding signal (z-score) [18]: -0.274 | glycan array binding signal (z-score) [19]: -0.277 | glycan array binding signal (z-score) [20]: -0.272 | glycan array binding signal (z-score) [21]: -0.27 | glycan array binding signal (z-score) [22]: -0.273 | glycan array binding signal (z-score) [23]: -0.217 | glycan array binding signal (z-score) [24]: 1.72 | glycan array binding signal (z-score) [25]: -0.213 | glycan array binding signal (z-score) [26]: 1.87 | glycan array binding signal (z-score) [27]: 0.207 | glycan array binding signal (z-score) [28]: -0.269 | glycan array binding signal (z-score) [29]: -0.246 | glycan array binding signal (z-score) [30]: -0.264 | glycan array binding signal (z-score) [31]: -0.273 | glycan array binding signal (z-score) [32]: -0.279 | glycan array binding signal (z-score) [33]: -0.261 | glycan array binding signal (z-score) [34]: -0.29 | glycan array binding signal (z-score) [35]: -0.286 | glycan array binding signal (z-score) [36]: -0.286 | glycan array binding signal (z-score) [37]: -0.285
